Laboratory results from patent publication US12662531B2, “CLDN18.2 antibody and use thereof” (FUTUREGEN BIOPHARMACEUTICAL (BEIJING) CO., LTD., priority 2019, dated 2026).
Changes are numbered by the printed parent chain. Names may count otherwise.

Legend:
[1] = tested on: untransfected Jurkat cells; test: Flow cytometry binding to untransfected Jurkat cells; conditions: results not shown
[2] = tested on: SNU601-CLDN18.2 cells; test: Mouse xenograft model of SNU601-CLDN18.2 cells with human PBMC; assay type: in vivo, NPG immunodeficient mice
Procedure: A mouse xenograft model of SNU601 cells was established by subcutaneous inoculation of NPG immunodeficient mice with SNU601-CLDN18.2 cells and Ficoll isolated human PBMC cells (SNU601-CLDN18.2 cells: PBMC is 1:0.8). Subsequently, NPG immunodeficient mice inoculated with SNU601 tumor cells were injected intraperitoneally with 18.2-A1F antibody 18.2-A1F at a dose of 10 mg/kg or 5 mg/kg, or blank control (PBS) or IgG isotype control (ISO), n=15 mice per group. Drugs were administered every 3 days after tumor inoculation, and the volume of tumors in mice was measured.

[3] = tested on: KATOIII-18.2High cells; test: Mouse xenograft model of KATOIII-18.2High cells with human PBMC; assay type: in vivo, NPG immunodeficient mice; conditions: 18.2-A1F 10 mg/kg; EOF: Epirubicin 1 mg/kg, Oxaliplatin 3 mg/kg, 5-fluorouracil 30 mg/kg; intraperitoneally every 3 days
Description: As shown by the results in Example 14, in vitro EOF combined chemotherapy was capable of increasing CLDN18.2 antibody induced FcγRIIIa receptor activation. KATOIII expressed a very low level of CLDN18.2 when cultured in vitro in IMDM medium, with only about 5.2% of the cells showing obvious positivity in flow cytometry (FIG. 11). After flow cytometry sorting, KATOIII cells with high CLDN18.2 expression (KATOIII-18.2High) were selected to inoculate NPG immunodeficient mice for xenograft model experiments (FIG. 16).
A xenograft model of KATOIII-18.2High cells was established by subcutaneously inoculating NPG immunodeficient mice with KATOIII-18.2High cells and Ficoll isolated human PBMC cells (KATOIII-18.2High cells: PBMC is 1:0.8). Subsequently, NPG immunodeficient mice inoculated with KATOIII-18.2High tumor cells were injected intraperitoneally with isotype control antibody (ISO), EOF (Epirubicin: 1 mg/kg; Oxaliplatin: 3 mg/kg; 5-fluorouracil: 30 mg/kg), 10 mg/kg dose of 18.2-A1F antibody, or EOF and 18.2-A1F, n=6 mice per group. Drugs were administered every 3 days after tumor inoculation, and the volume of tumors in mice was measured.

B1: 18.2-A1F: 18.2-A1 antibody expressed in the CHO-K1 cell line with Fut8 gene knockout (antibody)
heavy: EVQLVQSGAEVKKPGASVKVSCKASGYTFTSSWLIWVRQAPGQGLEWIGTIVPSDSYTNYNQKFKDRATLTVDKSTSTAYMELSSLRSEDTAVYYCTRFRTGNSFDYWGQGTLVTVSS[human IgG1 constant region left out here]
light: DIVMTQSPDSLSVGLGERATINCKSSQSVLNSGNQKNYLTWYQQKPGQPPKLLIYWAVARQSGVPDRFSGSGSGTDFTLTISSLQAEDVAVYYCQNSIAYPFTFGQGTKVEIKRTVAAPSVFIFPPSDEQLKSGTASVVCLLNNFYPREAKVQWKVDNALQSGNSQESVTEQDSKDSTYSLSSTLTLSKADYEKHKVYACEVTHQGLSSPVTKSFNRGEC
- binding to untransfected Jurkat cells [1]: not able to bind
- tumor suppression compared to PBS and IgG isotype control ([2]; 5 mg/kg intraperitoneally every 3 days): good tumor suppression effects
- tumor suppression compared to PBS and IgG isotype control ([2]; 10 mg/kg intraperitoneally every 3 days): good tumor suppression effects
- tumor growth compared to EOF group and control antibody group [3]: effectively inhibiting tumor growth

B2: 18.2-A4F: 18.2-A4 antibody expressed in the CHO-K1 cell line with Fut8 gene knockout (antibody)
heavy: B1 heavy with S32F, L34I, I35S, T50N, V52L, F99Y, R100W, T101R
light: DIVMTQSPDSLALALGERATINCKSSQSIINSGNQKNYLTWYQQKPGQPPKLLIYWGGTRHSGVPDRFSGSGSGTDFTLTISSLQAEDVAVYYCQNGYYSPFTFGQGTKVEIKRTVAAPSVFIFPPSDEQLKSGTASVVCLLNNFYPREAKVQWKVDNALQSGNSQESVTEQDSKDSTYSLSSTLTLSKADYEKHKVYACEVTHQGLSSPVTKSFNRGEC
- binding to untransfected Jurkat cells [1]: not able to bind
